Results from the supplement of paper PMC11417369.
This is one part of the list.

tested on: PF3D7_0420300 AP2 domain 1 (GST-tagged); assay: gcPBM binding intensity (ln(normalized median fluorescence intensity)); higher = stronger DNA binding
How it was run: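 An Agilent 4 × 180k array of primer-extended double-stranded 36-bp intergenic genomic probes, with negative controls, was incubated for 1 h with GST-tagged P. falciparum DNA-binding domains expressed in E. coli. Alexa488 anti-GST antibody detected bound protein, scanned at 488 nm. Binding intensity is the highest Masliner-normalised natural-log median intensity across replicate spots of either probe orientation.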

Sequence	gcPBM binding intensity (ln)
ATATATTATATGTACACACACATATAAGGGATTATA [CACACA_site5]	9.65
AAAAATATGAAGACACAATATAGAAATAAAAATATA [XGTACX_negctrl_site244]	9.44
TATTACTTGATATATACACACATATAACATAAATGC [CACACA_site7783]	9.45
TAGAATAAACCAAGAAGTACTGTTTAATGAAAAGTA [XGTACX_site5712]	9.37
ATACCTAAAAAATATACACACATATTTATAAATATA [CACACA_site7260]	9.6
TTTATGGATGTGTATGCATGCCTAAATAAATATATG [TGCATGCA_site916]	9.1
TAAATAATGTAAAAAACATCATCAAAATGTTAATTA [CACACA_negctrl_site1768]	9.09
ACGACATATGGATGATGTACTATCTTTATTATACAT [XGTACX_site6857]	9.33
CAATATAAAATAAAATGTACTTGTAGTAAAGGGATA [XGTACX_site1452]	9.49
ATAAAGGTTTTCCAAGCATGCCACATAGTGACATAC [TGCATGCA_site193]	9.05
AGATAGATACATACACGTACATATATATATACACAT [XGTACX_site4755]	9.53
AAGGTTATATAAAAAAGTACGCATAAGATGTTGTTC [XGTACX_site807]	9.45
TACTGTATTATAATTATGATTGACGAAATTAAAAAT [GTGCAC_negctrl_site358]	9.06
ATTAGAAAAAAGATAGCACACACGGCCCAATATATA [CACACA_site2417]	9.79
TGAAATTTATAATAGTGTACAAAGAAAAAAAAAAAA [XGTACX_site4965]	9.21
AGCTCTATATTTTACACATGCGATTTGGATATATAT [TGCATGCA_site105]	9.37
TAAATATATATCATCACACACACATACATAAATATA [CACACA_site183]	9.91
CCTTTATATTATAAAAGTACATAATATTTTATAAGT [XGTACX_site1629]	8.96
ATATTACAACGTAACGAATATTTCATAAATTCTTAA [CACACA_negctrl_site770]	9.06
ATTTCTCAATCGTAATGTACAAAAAAAAGGAAAAAA [XGTACX_site1193]	9.08
TTATATAGATGGAATAGTACAGTATATATATATATA [XGTACX_site8755]	9.41
GGTATAAAGAAATTTTGTACATATTTCTCCCTTTAA [XGTACX_site1874]	9.09
CGCATACACGGACACACACACACATATATATATATA [CACACA_site4520]	10.1
TAATATATAAGAAACAAAAAAAAATAAAAATATATA [TGCATGCA_negctrl_site153]	9.54
